Test results reported in patent US20060003020A1, “Anti-metastatic ability of mibefradil and gadolinium” (THE REGENTS OF THE UNIVERSITY OF MICHIGAN, priority 2004, published 2006).

Tested on: HT1080 cells
Assay: Microfluorometry of Ca^2+ spikes/oscillations in indo-1 labeled HT1080 cells

SMILES | changes in Ca^2+ spike frequency or amplitude (15 μM) | changes in Ca^2+ spike frequency or amplitude (1 μM)
COc1ccc(CCCOC(Cn2ccnc2)c2ccc(OC)cc2)cc1 (centres unmarked) [SKF96365] | No changes | –
COc1ccc([C@@H]2Sc3ccccc3N(CCN(C)C)C(=O)[C@@H]2OC(C)=O)cc1 [diltiazem] | – | No changes
